The results in this text go back to PubChem BioAssay AID1347073 (National Center for Advancing Translational Sciences (NCATS), 2019).

Screen size: about 45,000 compounds; about 200 (0.44%) were called active. Inconclusive results (about 7%) are left out. The call rests on the fitted dose curve; in most records, active means well fitted activation curve with a large enough effect; inconclusive means small, poorly fitted or top-dose-only effect; inactive means no such curve, though single readings can be large or run the other way. Some of the results follow.
Potency means the concentration at half of the fitted maximal effect.

A short description of this experiment: qHTS of TDP-43 Inhibitors: NCGC Sytravon Library Screen. Further: nearly all actives have a fitted effect of over 55% in size. On growth rescue (activation): 0% is about no effect. The conditions noted are these: yeast TDP-43 toxicity rescue, BacTiter-Glo growth, 24 h; series mostly up to 46.1 µM; growth rescue (activation): at the top concentration. Summed up:
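TDP-43-expressing yeast, pregrown in raffinose, seeded at OD600 0.02 in galactose medium with compound for 24 hr at 30 deg C. Growth read by BacTiter-Glo luminescence, so rescue of toxicity appears as activation.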
For orientation: In qHTS, concentration-response curves come from the screen itself.
As for `CCn1c2ccccc2c2cc(N=C3SC(CC(=O)Nc4ccccc4OC)C(=O)N3CCOC)ccc21` (stereo not drawn), the “growth rescue (activation)” value is inactive: 9.63%. As to `Nc1cc(S(=O)(=O)Nc2cc(Cl)ccc2Cl)ccc1N1CCOCC1`, the “growth rescue (activation)” value was inactive: 26.6%. Consider `O=C1Cc2cc(S(=O)(=O)NCc3ccc(F)cc3)ccc2N1`, for which the “growth rescue (activation)” value is inactive: 1.77%. Same read-out and setting: in the case of `Cn1cc(CNC(=O)C2CCC(=O)N(Cc3ccccc3F)C2)cn1` (stereo not drawn) it was inactive: -7.67%; in that of `Cc1ccc(C(=O)NCCNC(=O)c2ccc(C)nc2)cc1`, inactive: 0.716%. On the same count and under the same terms, to `COc1ccc(N(C)C(=O)C2CCN(S(=O)(=O)c3cccc4nonc34)CC2)c(OC)c1` belongs inactive: 14%; to `CC1c2nc3ccccc3n2C(CC(=O)NCCCN2CCOCC2)C(=O)N1Cc1ccccc1` (stereo not drawn), inactive: 10%. Still for that read-out and setting: in the case of `O=C(O)CNS(=O)(=O)c1ccc2c(c1)CCCC2` it was inactive: 19.4%. On to `COc1cc(Cl)cc(/C=C/c2ccc3ccccc3n2)c1OC(C)=O`, for which the Potency was active: 12.6 µM. `Clc1ccccc1OCCNc1nc(NCC2CC2)nc2ccsc12`: the “growth rescue (activation)” value was inactive: 9.6%. Consider `CC(C)C(=O)Nc1cccc(NC(=O)c2cccc(Br)c2)c1`, for which the “growth rescue (activation)” value was inactive: 6.23%. On the same count and under the same terms, to `COc1ccc(CSc2ncn[nH]2)cc1[N+](=O)[O-]` belongs inactive: 8.32%. Still for that read-out and setting: in the case of `COc1ccc(OC)c(Nc2nc3nonc3nc2N2CCCC(C)C2)c1` (stereo not drawn) it was inactive: -3.85%; in that of `CC(NC(=O)CSc1n[nH]c(N)n1)c1ccccc1` (stereo not drawn), inactive: 5.45%. Same read-out and setting: to `COc1ccc(OC)c(NC(=O)/C=C/c2ccccc2[N+](=O)[O-])c1` belongs inactive: 32.1%; to `CS(=O)(=O)N1CCN(c2ccc(NC(=O)CSc3nnc(-c4ccco4)o3)cc2)CC1`, inactive: 7.83%. Turning to `Cc1ccc(C(=O)C[n+]2ccccc2)cc1`, the “growth rescue (activation)” value is inactive: 14.9%. Turning to `O=C1CN(C(=O)COc2ccc(Cl)cc2Cl)c2ccccc2N1`, the “growth rescue (activation)” value was inactive: 16.8%. In the case of `COc1ccc(NC(C)C(=O)N/N=C/c2c(O)ccc3ccccc23)cc1` (stereo not drawn), the “growth rescue (activation)” value was inactive: -4.61%. Same read-out and setting: in the case of `CCC(=O)N(C)CCc1cc2c(c(OC)c1/C=N/NC(=O)c1ccc(Br)cc1)OCO2` it was inactive: 1.22%; in that of `COc1ccccc1CNC(=O)Cn1c(=O)oc2cc(Cl)ccc21`, inactive: -7.39%; in that of `CCOC(=O)CON1C(=O)C(=O)N(OCC(=O)OCC)[C@H]2CCCC[C@H]21`, inactive: 1.49%. On the same count and under the same terms, to `O=C(Nc1ccccc1F)c1ccc(OCc2ccccc2)cc1` belongs inactive: -8.86%. As to `COc1ccc(C2CCCN2C(=S)Nc2ccccc2C)cc1OC` (stereo not drawn), the “growth rescue (activation)” value was inactive: 20.9%. In the case of `Cc1ccc(S(=O)(=O)N2CCCCC2)cc1C(=O)OCC(=O)NC(=O)NC12CC3CC(CC(C3)C1)C2`, the “growth rescue (activation)” value is inactive: 34.9%. As for `Cc1csc(NC(=O)c2cc[n+]([O-])cc2)n1`, the “growth rescue (activation)” value is inactive: -14.4%. For the compound `Cc1cccc(N2C(=O)CC(SC(N)=Nc3ccccc3)C2=O)c1` (stereo not drawn), the “growth rescue (activation)” value is inactive: 1.96%. Consider `Cc1cc(C(=O)N/N=C/c2ccccc2)c(C)o1`, for which the “growth rescue (activation)” value was inactive: 6.57%. Turning to `CCC(C)[C@H](NC(=O)Nc1ccc(S(N)(=O)=O)cc1)C(=O)OC` (stereo partly drawn), the “growth rescue (activation)” value is inactive: 23.5%.

With `CC(C)CC1CCCCC1OC(=O)C[N+]1(C)CCCCC1` (stereo not drawn), the “growth rescue (activation)” value was inactive: 5.74%. The same measure, in the same setting: to `Cc1ccc(CN(C)CC(=O)Nc2ccc3c(c2)CCC3)cc1` belongs inactive: 5.92%. On the same count and under the same terms, in the case of `NC(=O)CCN1CCN(S(=O)(=O)/C=C/c2ccccc2)CC1` it was inactive: -14.4%. The same measure, in the same setting: to `Cc1cccc(NC(=S)NC(=O)c2ccc(-c3ccccc3)cc2)n1` belongs inactive: 4.77%. In the case of `CC(C)c1ccc(CC(=O)N2CCC2(C)C(=O)NCC(C)(C)C)cc1` (stereo not drawn), the “growth rescue (activation)” value was inactive: 13%. The same measure, in the same setting: in the case of `CC(=O)c1ccc(N2CCN(C(=O)c3cc(S(=O)(=O)N4CCOCC4)ccc3C)CC2)cc1` it was inactive: 11.8%; in that of `Cc1cc(C(C)(C)C)cc(C)c1CCNC(=O)c1c(C)noc1C`, inactive: 15.7%. As for `CCOC(=O)N1CCN(C(=O)COC(=O)Cc2ccc(Cl)cc2)CC1`, the “growth rescue (activation)” value was inactive: 5.63%. With `Cc1cc(C)c(C#N)c(SCC(=O)Nc2ccccc2C)n1`, the “growth rescue (activation)” value is inactive: 16.9%. `O=C1CC(N2CCC(c3nc4ccccc4o3)CC2)C(=O)N1c1ccc(F)cc1` (stereo not drawn): the “growth rescue (activation)” value was inactive: -4.73%. On the same count and under the same terms, to `Cc1ccc(NC(=O)Cn2nnc(-c3ccc4c(c3)OCO4)n2)cc1F` belongs inactive: 0.0498%.

For the compound `COc1ccccc1CN1C(=O)C(=O)c2cccc(C)c21`, the “growth rescue (activation)” value was inactive: -6.75%.

Consider `Cc1cc(C)n(-c2ccc(C(=O)NCc3ccc(F)cc3)cc2)n1`, for which the “growth rescue (activation)” value is inactive: 37.5%. `COc1ccc(N2CCN(C(=O)CSc3ncnc4c3cnn4-c3ccc(OC)cc3)CC2)cc1`: the “growth rescue (activation)” value was inactive: 0.18%. The same measure, in the same setting: in the case of `O=C(O)CNS(=O)(=O)/C=C/c1ccccc1` it was inactive: -7.37%. Same read-out and setting: to `COc1ccc(N(CC(=O)NCCSc2ccccc2)S(=O)(=O)c2ccccc2)c(OC)c1` belongs inactive: -0.0116%. For the compound `COc1ccc(CCNC(=O)CSc2nnc(Cc3cccn3C)n2C)cc1OC`, the “growth rescue (activation)” value is inactive: -10.2%. On the same count and under the same terms, in the case of `CCOc1ccc(C2C(C#N)=C(N)N(N(C)C)C3=C2C(=O)CC(C)(C)C3)cc1` (stereo not drawn) it was inactive: -14.7%; in that of `Cc1ccc2c(c1)cc(CN(C(=O)N1CCOCC1)C1CCCC1)c1nnnn12`, inactive: 9.06%; in that of `Cc1cc(C)cc(C(=O)NCC(=O)N2CCN(C(c3ccccc3)c3ccccc3)CC2)c1`, inactive: -3.49%. As to `CCCCN(C=O)c1c(CC)nc2ccc(C(=O)N3CCCCC3)cn12`, the “growth rescue (activation)” value was inactive: -5.08%. Same read-out and setting: in the case of `CCS(=O)(=O)N1CCCC(C(=O)NCc2cccc(OC)c2)C1` (stereo not drawn) it was inactive: 0.884%; in that of `O=C(CSc1ncccn1)N1CCN(S(=O)(=O)c2ccccc2)CC1`, inactive: 0.149%. Still for that read-out and setting: in the case of `O=c1[nH]c(-c2cccnc2)nc2sc(-c3ccccc3)cc12` it was inactive: -6.66%; in that of `COc1ccc(CN(C)Cc2c(O)ccc3cc(Br)ccc23)cc1OC`, inactive: -9.63%; in that of `COc1ccc(N2CCN(c3nc4cc(C)ccc4cc3C=O)CC2)cc1`, inactive: 21.9%.

On to `OCCC1CN(Cc2cccn2-c2cccnc2)CCN1CCc1ccccc1` (stereo not drawn), for which the “growth rescue (activation)” value is inactive: 2.96%. The same measure, in the same setting: in the case of `COc1ccc(N2CCN(c3nccs3)CC2)cc1` it was inactive: 2.34%; in that of `COc1ccc(/C(N)=N/OC(=O)C2CCC(=O)N2S(=O)(=O)c2ccc(C)cc2)cc1OC` (stereo not drawn), inactive: 9.24%. For the compound `O=C(c1cc(-c2ccccn2)nc2ccc(Br)cc12)N1CCN(S(=O)(=O)c2ccccc2)CC1`, the “growth rescue (activation)” value is inactive: 2.56%. Turning to `CN1CCCC(OC(=O)CCCCC(=O)OC2CCCN(C)C2)C1` (stereo not drawn), the “growth rescue (activation)” value was inactive: -23.1%.

Consider `CCCc1cc(=O)[nH]c(SCC(=O)Nc2cc(S(=O)(=O)N3CCOCC3)ccc2N(CC)CC)n1`, for which the “growth rescue (activation)” value was inactive: 13.2%. Same read-out and setting: to `Cc1cc(C)nc(N2CCCC(C(=O)Nc3ccc(F)cc3)C2)n1` (stereo not drawn) belongs inactive: 5.04%.

Consider `Cc1c(Cl)cccc1NC(=S)NC(=O)CCN1C(=O)c2ccccc2C1=O`, for which the “growth rescue (activation)” value is inactive: 13.3%.

For `CC1CCN(S(=O)(=O)c2ccc(NC(=O)CN3CCCCCC3)cc2)CC1`, the “growth rescue (activation)” value was inactive: -15.3%.

`CCC1CCCCN1C(=O)Cn1nc([N+](=O)[O-])c(Cl)c1C` (stereo not drawn): the “growth rescue (activation)” value was inactive: 5.74%.

Turning to `CCN(CC)C(=O)c1cccc(-c2csc(C(NC(C)=O)c3cccc(OC)c3)n2)c1` (stereo not drawn), the “growth rescue (activation)” value is inactive: 12.1%.

In the case of `Cc1ccc(C)c(NC(=O)c2cc(-c3ccccc3)nn2-c2ccccc2)c1`, the “growth rescue (activation)” value was inactive: -1.8%. Still for that read-out and setting: to `CC(NC(=O)c1ccccc1)c1ccc(F)cc1` (stereo not drawn) belongs inactive: 1.51%.
